Laboratory results reported in paper PMC4336329 (PLoS ONE, 2015).
Among all 310,000 compounds or so, about 2,200 (0.71%) showed an effect of 50% or more. Effects have a minus sign here. This is one part of the list.

Molecular target: human ether-à-go-go-related gene (hERG) potassium channel (human, UniProt Q12809)
Assay: primary screen, population patch clamp on CHO cells stably expressing hERG

Sequence of human ether-à-go-go-related gene (hERG) potassium channel (Q12809 whole entry, looked up): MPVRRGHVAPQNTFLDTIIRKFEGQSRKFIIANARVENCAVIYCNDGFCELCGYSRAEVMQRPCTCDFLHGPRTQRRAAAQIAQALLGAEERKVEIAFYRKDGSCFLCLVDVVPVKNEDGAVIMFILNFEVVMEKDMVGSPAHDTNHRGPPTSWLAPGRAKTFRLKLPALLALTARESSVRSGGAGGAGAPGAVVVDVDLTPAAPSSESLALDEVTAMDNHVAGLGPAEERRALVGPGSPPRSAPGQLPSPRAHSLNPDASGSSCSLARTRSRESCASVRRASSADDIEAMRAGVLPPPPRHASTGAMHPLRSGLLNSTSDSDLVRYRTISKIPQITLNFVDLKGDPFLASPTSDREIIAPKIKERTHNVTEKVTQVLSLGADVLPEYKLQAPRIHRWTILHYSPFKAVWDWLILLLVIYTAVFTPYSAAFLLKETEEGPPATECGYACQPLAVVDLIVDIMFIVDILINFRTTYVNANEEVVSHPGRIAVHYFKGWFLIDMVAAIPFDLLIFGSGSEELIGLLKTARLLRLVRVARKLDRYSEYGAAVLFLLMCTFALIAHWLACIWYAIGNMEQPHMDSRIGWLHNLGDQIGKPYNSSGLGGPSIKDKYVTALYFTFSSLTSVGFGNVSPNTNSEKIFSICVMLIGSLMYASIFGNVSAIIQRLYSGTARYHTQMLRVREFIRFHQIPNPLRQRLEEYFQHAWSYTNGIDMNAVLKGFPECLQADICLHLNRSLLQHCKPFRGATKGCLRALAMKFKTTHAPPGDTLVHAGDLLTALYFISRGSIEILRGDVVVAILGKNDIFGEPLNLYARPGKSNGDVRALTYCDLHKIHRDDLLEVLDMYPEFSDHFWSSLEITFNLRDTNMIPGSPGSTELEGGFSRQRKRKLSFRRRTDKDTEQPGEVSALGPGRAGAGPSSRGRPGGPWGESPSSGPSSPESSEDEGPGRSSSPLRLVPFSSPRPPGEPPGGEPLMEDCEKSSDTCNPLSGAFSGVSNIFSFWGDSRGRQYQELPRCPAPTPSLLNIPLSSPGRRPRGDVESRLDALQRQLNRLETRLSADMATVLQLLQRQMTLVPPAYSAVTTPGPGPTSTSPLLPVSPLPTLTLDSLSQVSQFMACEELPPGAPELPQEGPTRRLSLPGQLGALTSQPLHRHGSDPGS

| SMILES | hERG current change (%, negative = inhibition) at 1uM [%] |
| --- | --- |
| Cc1cccc(C)c1NC(=O)c1cccc2c1-c1ccccc1C2=O | 3.44 |
| C/C(=N\NC(=O)c1ccc(O)cc1)c1ccc2c(c1)Nc1ccccc1S2 | 4.97 |
| Cn1c(/C(C#N)=C(\O)c2ccc([N+](=O)[O-])cc2)nc2ccccc21 | 17 |
| COC(=O)/C(=C/N(C)C)C(=O)N1CCN(c2ccc(Cl)c(Cl)c2)CC1 | 5.92 |
| N#C/C(=C/N1CCOCC1)c1ccccc1 | -10.6 |
| COc1cc(OC)c(OC)cc1CNCCc1ccc(F)cc1.O=C(O)C(=O)O | 4.3 |
| Cc1ccccc1CN1CCN(C(C)C(=O)NNC(=O)c2ccc(F)cc2)CC1 (stereo not shown) | 9.27 |
| COc1cccc(CNC(=S)Nc2cc(OC)ccc2OC)c1 | 16.3 |
| N#Cc1ccc(C(=O)CN2CCN(c3ccccc3)CC2)cc1 | 0.529 |
| CC(=O)Nc1ccccc1O | 17.5 |
| Cc1cccc(/N=C2/NC(=O)C(Cc3ccccc3)S2)n1 (stereo not shown) | 5.91 |
| CCOCCCNC(=O)C1c2ccccc2Oc2ccccc21 | 13.5 |
| CC1CCCCC1NC(=O)Cn1cnc2ccccc2c1=O (stereo not shown) | 10.5 |
| CC(=O)Nc1ccc(N2C(=O)CSC2c2ccc([N+](=O)[O-])cc2)cc1 (stereo not shown) | 7.42 |
| O=c1c2[nH]c3ccccc3c2ncn1CCN1CCCCC1 | -21.4 |
| CCN(CC(=O)Nc1c(F)cccc1F)C(=O)c1cn2ccccc2n1 | 22.5 |
| N#C/C(=C/c1cn[nH]c1-c1cccc(Br)c1)C(=O)O | 11.4 |
| CCN(CC)C(=O)CSc1nnc(-c2c[nH]c3ccccc23)o1 | 10.3 |
| COc1ccc(NS(=O)(=O)c2ccc(C)c(C(=O)N(C)Cc3ccc(OC)cc3OC)c2)cc1 | 12.6 |
| CCOC(=O)c1ccccc1NC(=O)c1cc2sccc2n1C | 9.57 |
| CCn1c2ccccc2c2cc(NC(=O)CN3CCCC3)ccc21 | 11.6 |
| Cc1ccc(N2C(=O)C(O)(C(F)(F)F)C3=C2CC(C)(C)CC3=O)cc1C (stereo not shown) | 13.5 |
| O=C(NNC1=NCCC1)c1ccc(Br)cc1 | 6.31 |

| SMILES | hERG current change (%, negative = inhibition) at 1uM [%] |
| --- | --- |
| COc1cc2c(cc1OC)C(C(=O)Nc1cc(C)c(OC)c(C)c1)CC(=O)N2 (stereo not shown) | 11.9 |
| COc1ccc([N+](=O)[O-])cc1NC(=O)c1csc(C)c1 | 6.51 |
| O=C(COC(=O)c1cc(-c2ccccc2Cl)nc2ccccc12)Nc1ncc(C(F)(F)F)cc1Cl | 0.4 |
| O=C(N/N=C/c1ccncc1)c1cccs1 | 9.87 |
| O=C(Nc1ccc2nsnc2c1)C1CC1 | 5.31 |
| NNC(=O)c1nc(-c2cccc(-n3cccc3)c2)no1 | 10.7 |
| COc1ccccc1NC(=S)N(CCCN1CCOCC1)Cc1cccs1 | -2.25 |
| N#Cc1cc2c(nc1SCc1ccccc1)CCCC2=O | 4.84 |
| COc1ccc(/C=N/NC(=O)CCc2ccccc2)cc1O | 6.15 |
| Cc1cc(NC(=O)Nc2ccc(F)cc2F)n(C)n1 | 6.74 |
| CN1CCN(c2oc(/C=C/c3ccccc3)nc2C#N)CC1 | -3.19 |
| CC(=O)c1cc(-c2ccccc2)n(CC(=O)NC2CCCCC2)c1C | 5.1 |
| CC(OC(=O)[C@H](C)NC(=O)c1ccccc1Cl)C(=O)NCc1ccc2c(c1)OCO2 (stereo partly shown) | -3.86 |
| CC/C(C)=N\N=C\c1c(O)n(CC)c2cc(C3=NNC(=O)CC3)ccc12 | -1.63 |
| O=C(Cc1ccccc1)NNC(=O)Nc1ccc(Cl)c(Cl)c1 | 16.7 |
| CN1C(=O)SC(Nc2ccccc2)C1=O (stereo not shown) | 10.6 |
| CCN(CC)S(=O)(=O)c1ccc(OC)c(NS(=O)(=O)c2ccc(F)cc2)c1 | 3.23 |
| COc1ccc(OCCC(=O)OCC(=O)Nc2cccc(Br)c2)cc1 | 0.704 |
| CNC(=O)NC(=O)CSc1nnc(-c2ccco2)n1Cc1ccccc1 | 0.532 |
| O=C(COc1ccccc1)N1CCN(C/C=C/c2ccccc2)CC1 | -30.3 |
| CC(CN1CCCCC1)OC(=O)C1c2ccccc2Oc2ccccc21.Cl (stereo not shown) | 7.27 |
| COCCN(Cc1nc2ccccc2c(=O)[nH]1)C(=O)COc1c(C)cc(Cl)cc1C | 16.3 |
| COC(=O)c1ccc(C2NC(=S)N(c3ccccc3)C(C)=C2C(=O)Nc2ccccc2OC)cc1 (stereo not shown) | 11.3 |
